“And” between values parts separate entries of the source, which are not always exact repeats. Equal values may be shown once.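 Assay format: 96-well plates, 48-hour exposure. At the GI50, growth is halved. TGI marks complete inhibition of growth.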
test system: NCI-H322M lung; assay: NCI anticancer screen, dose series, 48 h

Compound	TGI	GI50
O=C(Cc1ccccc1)NN1C(=O)/C(=C\c2ccc([N+](=O)[O-])cc2)SC1=Nc1ccccc1	> 100 µM	
CCC[CH2][Sn]([CH2]CCC)([O]C(=O)c1cccnc1SC)[O]C(=O)c1cccnc1SC	4.59 µM	2.09 µM
Brc1cccc(N=NN2CCCC2)c1	> 100 µM	
O=C(N/N=C/c1ccccc1O)c1ccccc1Nc1ccnc(C(F)(F)F)c1	> 100 µM	0.3 µM
Cn1c([O-])nc(-n2cc[n+](C)c2)cc1=O	> 100 µM	
CC(C)(C)C1C=C(Sc2ccccc2)C(=O)O1 (stereo unspecified)	> 100 µM	
CCNC(=O)C1CCCN1C(=O)C(CCCN=C(N)N)NC(=O)C(CC(C)C)NC(=O)C(Cc1c[nH]c2ccccc12)NC(=O)C(Cc1ccc(O)cc1)NC(=O)C(CO)NC(=O)C(Cc1c[nH]c2ccccc12)NC(=O)C(Cc1cnc[nH]1)NC(=O)C1CCC(=O)N1 (stereo unspecified)	> 100 µM	
O=C1CCC2(c3ccc(F)cc3)Nc3cc(Cl)ccc3N12 (stereo unspecified)	> 100 µM	
COc1ccc(C2=CC3CCC2C3)cc1 (stereo unspecified)	> 100 µM	
COC(=O)c1ccc(C=Nc2ccc(S(N)(=O)=O)cc2)cc1	> 100 µM	
CC(=O)CNC(=O)OC(C)(C)C	> 100 µM	
CCN(CC)CCOc1ccc(/C(=C(\Cl)c2ccccc2)c2ccccc2)cc1	13.9 µM and 8.08 µM	6.63 µM and 2.04 µM
COc1c(C)c2nc3ccccc3[nH]c2c2c(=O)ccnc12	> 100 µM	
COC(=O)C1CC2(c3ccccc3)C(=O)c3ccccc3N2O1 (stereo unspecified)	> 100 µM	
NC1CNC(=O)c2c(Cl)sc(Cl)c21 (stereo unspecified)	> 100 µM	
CCCn1cnc2c(SCc3ccccc3Cl)nc(N)nc21	> 100 µM	35 µM
CC1S/C(=N/c2nnc(-c3ccccc3)o2)NC1=O (stereo unspecified)	> 100 µM	
Cc1cn(C(C)OCCN2C(=O)c3ccccc3C2=O)c(=O)[nH]c1=O (stereo unspecified)	> 100 µM	
Cc1cn([C@@H]2C[C@H]2CO)c(=O)[nH]c1=O	> 100 µM	
O=C(c1ccccc1)c1nnc(C(=O)c2ccccc2)nn1	> 344 µM	
CC(C)(C)c1cc(/C=C(\C#N)C(=O)NCCO)cc(C(C)(C)C)c1O	71.3 µM	
O=C1CCCCN1CCCCC#Cc1ccccc1C#Cc1ccc([N+](=O)[O-])cc1	80.9 µM	22.7 µM
C=C1C(=O)O[C@@]23C1CC[C@@H](C)C2CC[C@@]1(C)OC31 (stereo partly specified)	54.1 µM	
Brc1ccc2c(-c3csc(-c4c[nH]c5cc(Br)ccc45)n3)c[nH]c2c1	> 82.4 µM	

Compound	TGI	GI50
CCCCc1ccc(Nc2nc3c(ncn3COCCO)c(=O)[nH]2)cc1	> 100 µM	
COc1ccc(-c2cc(=O)c3ccc(O)cc3o2)cc1OC	> 100 µM	
Cc1cc2[nH]c3c(C#N)c4c(c(=O)n3c2cc1C)CCCC4	> 100 µM	
CC1CC(=O)Nc2nc3ccccc3n21 (stereo unspecified)	> 100 µM	
C/C(CC(=O)Nc1cc(Cl)c(Cl)cc1Cl)=N\NC(N)=O	> 100 µM	
O=C(/C(Br)=C/c1ccccc1)c1ccccc1	28.5 µM	14.2 µM
COc1c(Br)cc(CC(N)=O)c(O)c1Br	> 100 µM	
CCOC(=O)C(CC#Cc1ccc(C#CCC(NC(C)=O)C(=O)OCC)cc1)NC(C)=O (stereo unspecified)	> 100 µM	
CCOc1cc2c(Cl)ncnc2c(OCC)c1OCC	14.2 µM	3.9 µM
COc1ccc2cc(NC(=O)N/N=C\c3ccc(Cl)cc3)ccc2c1	> 100 µM	
OCc1c[nH]c2ccccc12	78.2 µM	24.8 µM
C=CCOCCCCC(C(C)=O)C(=O)OC (stereo unspecified)	> 100 µM	
O=C1C2c3[nH]c4ccccc4c3C3CCCCCCC3C2C(=O)N1c1ccccc1 (stereo unspecified)	> 100 µM	
CNC(=O)N(CCC#N)[C@H]1CCCC[C@@H]1N(C(=O)NC)c1ccccc1	> 100 µM	
CN(C)CCn1c(=O)c2ccc(NCCCN(C)CCCNc3ccc4c(=O)n(CCN(C)C)c(=O)n5c6ccc([N+](=O)[O-])cc6c(=O)c3c45)c3c(=O)c4cc([N+](=O)[O-])ccc4n(c1=O)c23	1.24 µM	
CCCCN=C(NC#N)NCCCC	> 100 µM	
COC(=O)/C=C/c1cc(OC)c(OC)c(OC)c1	> 100 µM	
O=C(N/N=C/c1ccco1)c1cc(I)cc(I)c1O	> 50 µM	
COc1ccc(/C(COc2c(-c3ccccc3)oc3ccccc3c2=O)=N\O)cc1	19.4 µM	0.205 µM
COC12C=C(C)C(CC1)CC2C(=O)O (stereo unspecified)	> 100 µM	
O=C(CC1=NCCN1)c1ccccc1	> 750 µM	
COc1cc(I)c2c3c1OC1C34CCN(C)C(C2)C4=CC(I)C1(OC)OC (stereo unspecified)	> 100 µM	
O=C(O)CNS(=O)(=O)c1ccc(NCc2ccccc2)cc1	> 100 µM	
CC(C)(C)C1CCC2(CC1)c1[nH]c3ccccc3c1C1(CCC(C(C)(C)C)CC1)c1[nH]c3ccccc3c12 (stereo unspecified)	> 100 µM	

Compound	TGI	GI50
CC[CH2][Sn]([CH2]CC)([O]C(=O)c1cccnc1SC)[O][Sn]([CH2]CC)([CH2]CC)[O]C(=O)c1cccnc1SC	4.84 µM	2.04 µM
CCc1ccc(/C=C\c2cc(OC)c(OC)c(OC)c2)cc1	31.8 µM	0.04 µM
O=c1[nH]nc(-c2ccccc2)c2[nH]c(-c3ccccc3)cc12	> 100 µM	
CCC(=O)Oc1c2ccsc2c(OC(=O)CC)c2ccsc12	3.19 µM	
Brc1cc2nn(-c3ccccc3)nc2c2nonc12	> 100 µM	
Cc1cccc(C)c1NC(=O)C(=O)C1C(=O)NC(=O)NC1=O	> 100 µM	
N#Cc1cc2c(cc1Cl)Sc1nccn1S2(=O)=O	8.69 µM	
C[C@]12CC[C@H]3[C@@H](CC=C4C[C@@H](O)CC[C@@]43C)[C@@H]1CC[C@@H]2N(CCO)CCO	> 100 µM	
C[C@@H]1OC(O)[C@@H](F)[C@H](O)[C@@H]1O (stereo partly specified)	> 100 µM	> 100 µM
Nc1ccc2[nH]c(-c3cccc(Cl)c3)cc(=O)c2c1	> 100 µM	
CCC(C)c1c(Cl)nc(Cl)nc1Cl (stereo unspecified)	22.9 µM	
CC(=O)OCC(OC(C)=O)C1C[C@H]2O[C@@H]3[C@H](C[C@H]2O1)O[C@@]1(C[C@@H]3C)C[C@H](C)[C@@H]2O[C@]3(C[C@@H]2O1)C[C@H]1O[C@H]2[C@H](C)[C@H]4OC(=O)CC5CC[C@H]6OC7[C@H]8O[C@]9(CC[C@H]%10CC(O)(CO)[C@H](CC[C@H]%11C[C@@H](C)C(O)(CO)C(C[C@@H]4O[C@H]2C[C@H]1O3)O%11)O%10)CC8O[C@@H]7[C@@H](O9)[C@H]6O5 (stereo partly specified)	0.0865 µM	
COC(=O)c1c/c(=N\NC(=O)CC(=O)Nc2ccccc2OC)c2ccccc2o1	> 100 µM	
CN1CCN(C)C12C=c1ccccc1=CC21CC1	> 79.6 µM	
CC(=S)N=Cc1c(O)cc(C)oc1=O	> 100 µM	
CCC(C)C(=O)OC1CC2(C)C(c3ccoc3)OC(=O)CC23OC2(C)OC34C(OC(=O)C(C)C)C3(O)C(OC(=O)C5(C)OC5C)C5(C)CC3(O)C(C)(C5CC(=O)OC)C14O2 (stereo unspecified)	> 100 µM	
CC1(C)OC2[C@@H](CNC(=O)NC(=O)NC(=O)CI)O[C@@H](n3cnc4c(NC(=O)Nc5ccccc5)ncnc43)[C@H]2O1 (stereo partly specified)	> 50 µM	> 50 µM
CC1(C)C=C(S(=O)(=O)c2ccccc2)Oc2ccccc2O1	> 100 µM	
c1ccc2c3c(c(N4CCOCC4)nc2c1)CCCC3	> 100 µM	
COc1cc([N+](=O)[O-])cc2c3c(n(C)c12)[C@@]1(C)CCC2c4ccc(OCc5ccccc5)cc4CCC2C1C3 (stereo partly specified)	> 100 µM	78.5 µM
O=C(CSc1n[nH]c(=O)[nH]c1=O)NNC(=O)c1cccc2nc3ccccc3nc12	> 100 µM	
O=C(/C=C/c1c(O)ccc2ccccc12)c1cccc(O)c1	> 100 µM	
COC(=O)[C@]12CC[C@@H](C)[C@H](C)[C@@H]1C1=CC[C@@H]3[C@@]4(C)C/C(=N\O)[C@H](O)[C@@]5(C)COC(=C45)C[C@@]3(C)[C@]1(C)CC2	21.9 µM	6.33 µM

Reference: PubChem BioAssay (NCI)
